Out of some 360,000 compounds screened, about 7,500 (2.1%) were called active. The shares of active, inactive and inconclusive entries below differ from those in the screen. Calls follow the shape of the dose curve; as a rule, active = well fitted cell-killing curve with a large enough effect; inconclusive = small, poorly fitted or top-dose-only effect, or effect the other way, or another doubt; inactive = no such curve, though single readings can be large or run the other way. Potencies of inconclusive entries are left out as doubtful fits.
assay: qHTS for induction of synthetic lethality in tumor cells producing 2HG: qHTS for the HT-1080-IDH1KD cell line; settings: HT-1080 IDH1 knockdown viability, ATP luminescence, 48 h; series mostly up to 46.1 µM
In short: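 CellTiter-Glo luminescence after 48 h compound exposure at 37 degrees C of IDH1-knockdown HT-1080 cells in 5% FBS RPMI. %Activity scaled between DMSO wells and cell-free media wells, with curves fitted and assigned curve classes.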
Potency is read from the fitted curve at half-maximal effect; tags tell the direction and shape of the fitted curve.

Compound | Potency
COc1ccc(Cc2c(-c3cccc(Br)c3)nc3ccc(Cl)cn23)c(C)c1 | inactive
CCOC(=O)C(C(C)=O)c1c(Br)c(O)c(O)c2c(C(=O)c3ccc(C)cc3)coc12 (stereo not given) | active: 8.91 µM
CCOC(=O)c1cc(C)sc1NC(=O)c1ccc(Cl)s1 | inactive
Cc1ccc(C(O)c2ncc(-c3ccc(Cl)cc3)[nH]2)c(C)c1 (stereo not given) | inconclusive [cytotoxic, single point]
O=C(CN1c2ccccc2Sc2ccccc21)NNC(=O)Nc1ccc(Cl)c(Cl)c1 | inconclusive [cytotoxic, single point]
Cc1cc(C)c2c(N)c(C(=O)Nc3ncc(C)s3)sc2n1 | inconclusive [cytotoxic, single point]
CCc1ccc(NC(=O)C(=O)NCC2CCCN2S(=O)(=O)c2ccccc2)cc1 (stereo not given) | inconclusive [cytotoxic, partial curve]
CCN(CC)CCOC(=O)c1ccc(N/C=C(/C#N)c2nc(-c3ccc4c(c3)OCO4)cs2)cc1 | inactive
O=C(CCNc1ccc(Cc2ccncc2)cc1)c1cccc([N+](=O)[O-])c1 | inconclusive [cytotoxic, single point]
CCOC(=O)C(=O)NNc1ccc(Cl)cc1 | active: 4.11 µM
O=C(CCNC(=O)c1ccco1)Nc1ccc(F)c(Cl)c1 | inactive
COc1ccc(-n2c(=O)[nH]cc(C(=O)Nc3ccc(NC(C)=O)cc3)c2=O)cc1 | inconclusive [rising, single point]
CC(C)(C)NC(=O)C(c1ccc(C(F)(F)F)cc1)n1c(=O)c(-c2ccco2)nc2ccccc21 (stereo not given) | inconclusive [cytotoxic, single point]
COc1ccccc1CNc1nc(Oc2cccc(F)c2)c2sccc2n1 | inconclusive [cytotoxic, single point]
CCOC(=O)Nc1c(O)ccc2oc(C)c(-c3ccccc3)c12 | inactive
S=c1[nH]cnc2scc(-c3ccc(Br)cc3)c12 | active: 13 µM
CCOC(=O)C(NS(=O)(=O)c1ccccc1)(C(F)(F)F)P(=O)(OCC(C)C)OCC(C)C (stereo not given) | inconclusive [cytotoxic, single point]
Cc1ccc2nc(-c3ccco3)c(Cc3ccccc3)n2c1 | active: 23.1 µM
O=C(NC1CCCCC1)C(c1ccc(O)cc1)N(CC1CCCO1)C(=O)C1COc2ccccc2O1 (stereo not given) | active: 4.61 µM
OC(c1cccc(Cl)c1)c1nc(-c2cc3ccccc3o2)cs1 (stereo not given) | inconclusive [cytotoxic, single point]
CCOC(=O)C(C)On1c(-n2nc(C)cc2C)nc2ccccc2c1=O (stereo not given) | inconclusive [cytotoxic, single point]
Clc1cccc(-c2nc(NCc3cccnc3)c3ccccc3n2)c1 | inconclusive [cytotoxic, single point]
CCOC(=O)c1c(NC(=O)/C=C/C(=O)O)sc(C)c1-c1ccc(C)c(C)c1 | inconclusive [cytotoxic, single point]

Compound | Potency
CCC(c1nnnn1-c1ccc2c(c1)OCCO2)N1CCN(c2ccc(C(F)(F)F)cn2)CC1 (stereo not given) | inconclusive [cytotoxic, single point]
CCN1CCN(c2sc(S(C)(=O)=O)nc2S(=O)(=O)c2ccc(Cl)cc2)CC1 | inconclusive [cytotoxic, single point]
O=C1C2C3c4ccccc4C(c4ccccc43)C2C(=O)N1c1ccncc1 (stereo not given) | inactive
O=[N+]([O-])c1ccc(NC(c2ccccc2)c2ccc3cccnc3c2O)cc1 (stereo not given) | inconclusive [cytotoxic, single point]
CN(C)C(=O)COc1ccc(C(=O)/C=C/c2cccnc2)cc1 | inconclusive [cytotoxic, single point]
CCOC(=O)c1sc(Nc2ccc(Br)cc2)nc1C | inconclusive [cytotoxic, single point]
CNC(=S)Nc1ccc(OC(F)(F)F)cc1 | inactive
O=C1c2cccc3c([N+](=O)[O-])ccc(c23)C(=O)N1c1ccc(Cl)cn1 | active: 1.58 µM
Fc1ccccc1NC(=S)NNc1ncc(C(F)(F)F)cc1Cl | inconclusive [cytotoxic, single point]
Cc1cc(C)c(C)c(S(=O)(=O)N2CCN(CC(=O)Nc3sccc3C#N)CC2)c1C | inconclusive [cytotoxic, partial curve]
Nc1nc2c(c(=O)[nH]1)C(c1cccc3ccccc13)C1=C(N2)c2ccccc2C1=O (stereo not given) | inconclusive [cytotoxic, partial curve]
Cc1ccc(N(C(=O)c2ccccn2)C2(C(=O)NC3CCCC3)CCCCC2)cc1 | inactive
C[C@H]1CCCCO[C@@H](CN(C)S(=O)(=O)c2ccc(F)cc2)[C@@H](C)CN([C@@H](C)CO)C(=O)c2cc(NC(=O)Nc3ccc4c(c3)OCO4)ccc2O1 | inactive
CC(=O)c1c(Cl)nc2ccc(Br)cc2c1-c1ccccc1 | inactive
Cc1cc(-c2nc3ccccc3[nH]2)ccc1N | inconclusive [cytotoxic, single point]
Fc1ccc(CSc2nc3ccccc3[nH]2)cc1 | inconclusive [cytotoxic, single point]
CCN(C(C)=O)c1nc(CSc2nnc(NC(C)C)s2)cs1 | inactive
CCOc1cc2c3c(c1)C(C)=CC(C)(C)N3C(=O)C2=O | inconclusive [cytotoxic, full curve, poor fit]
c1cnc(N2CCN(Cc3c[nH]c4ccccc34)CC2)nc1 | inconclusive [cytotoxic, partial curve, poor fit]
CC(=O)Nc1cccc(Oc2ccc3c(c2)C(=O)NC3=O)c1 | inactive
O=C(Nc1ccc2nc(-c3ccco3)c(-c3ccco3)nc2c1)N1CCCCCC1 | inconclusive [cytotoxic, single point]
CCCCC1CC2=C(C(=O)OC(C)(C)O2)C(c2cccc3ccccc23)O1 (stereo not given) | inconclusive [cytotoxic, single point]
